Reference: PubChem BioAssay AID686978 (National Center for Advancing Translational Sciences (NCATS), 2013)
“And” between values parts separate entries of the source, which are not always exact repeats. Equal values may be shown once. Out of some 420,000 compounds screened, about 64,000 (15%) were called active. Inconclusive results, whose numbers are uncertain, are shown with a selection of clear calls. Calls come from the whole dose curve; as a rule, active = well fitted inhibition curve with a large enough effect; inconclusive = small, poorly fitted or top-dose-only effect; inactive = flat fitted curve, though single readings scatter. A potency beside an inconclusive call is a rough fit, not a confirmed value.

assay: qHTS for Inhibitors of human tyrosyl-DNA phosphodiesterase 1 (TDP1): qHTS in cells in absence of CPT; conditions: DT40 Tdp1-/- hTDP1 cells, no CPT, ATP luminescence, 48 h; activity change, negative = growth inhibition: at 46.2 µM (top of the series); note: nearly all actives have a fitted effect of over 55% in size
Outline: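 Compound effects on proliferation are scored in DT40 Tdp1-/-;hTDP1 cells in the absence of CPT. ATP levels (CellTiter-Glo luminescence) are recorded after a ≥48 hr, 37 °C incubation.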
% is set by controls: 0 for no effect and ±100 for the full control effect; potency is the fitted concentration of half-maximal effect; tags give direction and shape of the fitted curve.

Row | SMILES | Potency | activity change, negative = growth inhibition
1 | OC(c1ccc(Cl)c(Cl)c1)c1ncc(-c2ccc(C(F)(F)F)cc2)[nH]1 (stereo not given) | active: 16.4 µM | 
2 | COC(=O)c1ccc(/C=N/Nc2nc(C)c(C)s2)cc1 | inconclusive: 18.4 µM [inhibitor, partial curve] | 
3 | COC(=O)CSc1nnc2n(C3CCCCC3)c(=O)c3c4c(sc3n12)CCCC4 | inconclusive: 11.2 µM [inhibitor, partial curve] | 
4 | CC(=O)Nc1nonc1-c1nnc(SCC(=O)Nc2ccccc2)n1-c1ccccc1 |  | inactive: -26.5%
5 | CCCCOc1ccc(CNC(=O)c2ccc(NC(=O)N3CCCCc4ccccc43)cc2)cc1 | active: 25.9 µM | 
6 | O=C(Nc1cccc(F)c1)C1CCN(C(=O)c2ccc(Cl)cc2)CC1 | inconclusive: 29.1 µM [inhibitor, single point] | 
7 | O=C(Nc1ccc(C(F)(F)F)cc1)c1cccnc1N1CCOCC1 | inconclusive: 14.6 µM [inhibitor, partial curve] | 
8 | CCc1nc2c(OCc3ccccc3C)cccn2c1N(C)C(=O)c1ccco1 | inconclusive: 23.1 µM [inhibitor, single point] | 
9 | CCOc1ccc(NCc2cccn2-c2nnc(N3CCC(C(=O)NCCCN4CCCCC4C)CC3)s2)cc1 (stereo not given) | inconclusive: 29.1 µM [inhibitor, single point] | 
10 | CCOc1ccccc1NC(=O)CCc1c(C)nn(-c2ccc(N3CCOCC3)nn2)c1C | inconclusive: 16.4 µM [inhibitor, partial curve] | 
11 | CC1(C)CC(=O)C2=C(C1)OC(N)=C(C#N)C2C#Cc1ccccc1 (stereo not given) | active: 4.61 µM | 
12 | Cc1nc(N2CCN(C(=O)c3cccs3)CC2)c2c3c(sc2n1)CCCC3 | inconclusive: 29.1 µM [inhibitor, single point] | 
13 | CCc1ccccc1NC(=O)C1CCN(S(C)(=O)=O)CC1 |  | inactive: 0.0136%
14 | COc1ccc(C(=O)N2CCc3[nH]nc(-c4ccccc4)c3C2)cc1 | inconclusive: 29.1 µM [inhibitor, single point] | 
15 | CSc1ccc(NC(=O)Nc2ccccc2C(N)=O)cc1 | inconclusive: 9.2 µM [inhibitor, partial curve] | 
16 | N#Cc1cc([N+](=O)[O-])ccc1Oc1ccc(-c2nnco2)cc1 | inconclusive: 29.1 µM [inhibitor, single point] | 
17 | O=C(C1CCCCC1)N1C[C@@H](n2cc(-c3ccc(F)cc3)nn2)[C@H](O)C[C@@H]1c1ccc(Cl)cc1 | active: 23.1 µM | 
18 | COc1ccc(N2CCN(C(CNC(=O)c3cccc(Cl)c3)c3cccnc3)CC2)cc1 (stereo not given) | inconclusive: 29.1 µM [inhibitor, single point] | 
19 | NNC(=O)Cc1csc(-c2ccccc2)n1 |  | inconclusive: -16.6% [inhibitor]
20 | CCC(=O)N1c2ccccc2CC1C(=O)NCCN1CCN(c2cccc(C(F)(F)F)c2)CC1 (stereo not given) | active: 29.1 µM | 
21 | C=CCn1c(=O)n(C(=O)OCC)c2cc(Br)ccc21 |  | inactive: -16.6%
22 | CCc1ccc(NC(=O)c2ccccc2SC)cc1 |  | inactive: 6.48%
23 | COc1ccccc1OC(C)C(=O)Nc1c(C(=O)c2ccc(Cl)cc2)oc2ccccc12 (stereo not given) |  | inactive: 0.0625%

Row | SMILES | Potency | activity change, negative = growth inhibition
24 | CCOC(=O)C1(Cc2ccccc2C)CCCN(S(=O)(=O)c2cccnc2)C1 (stereo not given) | active: 16.4 µM | 
25 | Cc1ccc(C)c(N2CCN(Cc3nnc(-c4ccc5c(c4)OCO5)o3)CC2)c1 | inconclusive: 29.1 µM [inhibitor, single point] | 
26 | COc1ccc(F)cc1S(=O)(=O)NCCCn1ccnc1 |  | inactive: 4.05%
27 | Cc1nc2c(c(C)c1C#N)C(=O)c1ccccc1-2 | inconclusive: 29.1 µM [inhibitor, single point] | 
28 | CCCCn1c(=O)n(CC(=O)Nc2ccc(OC)c(Cl)c2)c(=O)c2c1nc(CO)n2CCC | inconclusive: 23.1 µM [inhibitor, single point] | 
29 | Cc1ccc(N(CC(=O)NCc2ccc(F)cc2)S(=O)(=O)c2c(C)nn(C)c2C)cc1 | inactive and inconclusive: 23.1 µM [inhibitor, single point] | 
30 | CCCCCCCC1c2c(c(C)c(C)oc2=O)Oc2c(C)c(C)oc(=O)c21 |  | inactive: -15.5%
31 | COc1ccc(-n2ncc3c2CC(C)(C)CC3NC(=O)CCc2c(C)noc2C)cc1 (stereo not given) |  | inactive: -10.3%
32 | COc1ccc(S(=O)(=O)NCCSc2ccc(Cl)cc2)cc1OC | inconclusive: 29.1 µM [inhibitor, single point] | 
33 | CC(C)c1ccc(NC(=O)Cn2c(=O)oc3cccnc32)cc1 |  | inactive: -11.5%
34 | CC(C)(C)OC(=O)N1O[C@H]2C[C@@H]1[C@@H]1[C@@H]2N=NN1C12CC3CC(CC(C3)C1)C2 | inconclusive: 29.1 µM [inhibitor, single point] | 
35 | CCOc1ccccc1C(=O)NCC(=O)NCCc1ccc(S(N)(=O)=O)cc1 |  | inactive: -20.7%
36 | Cc1ccc(-n2cc(-c3ccccc3)nc2S(=O)(=O)CC(=O)Nc2ccc(F)cc2)cc1 | inconclusive: 25.9 µM [inhibitor, single point] | 
37 | Cn1c(N)c(C(=O)COC(=O)CC(NC(N)=O)c2ccc(Cl)cc2)c(=O)n(C)c1=O (stereo not given) |  | inactive: -21.8%
38 | CC(C)(C)c1ccc(C(=O)NCCC(=O)NCc2ccc(F)cc2)cc1 | inconclusive: 29.1 µM [inhibitor, single point] | 
39 | CCOC(=O)Cn1nnnc1CN(CCc1ccccc1)Cc1cc2cc(CC)ccc2[nH]c1=O | inconclusive: 29.1 µM [inhibitor, single point] | 
40 | COc1ccc(S(=O)(=O)NCC(=O)NC2CC2)cc1OC |  | inactive: 25.6%
41 | CC(C)CC(C(=O)N1CCc2ccccc2C1)N1C(=O)c2ccccc2C1=O (stereo not given) | inconclusive: 29.1 µM [inhibitor, single point] | 
42 | CN(C)c1ccc(C(C(=O)NC2CCCC2)N(C(=O)c2ccco2)C2CC2)cc1 (stereo not given) |  | inconclusive: -33.4% [inhibitor]
43 | COc1ccc(C(=O)Oc2c(CN3CCOCC3)cc(Cl)c3cccnc23)cc1 | active: 5.8 µM | 
44 | CCC(C)N=Cc1c(Nc2ccccc2)nc2c(C)cccn2c1=O (stereo not given) | inconclusive: 18.4 µM [inhibitor, partial curve, poor fit] | 
45 | OCC1CCCN(C(=S)Nc2ccc(Oc3ccccc3)cc2)C1 (stereo not given) | inconclusive: 20.6 µM [inhibitor, single point] | 
